# According to paper PMC12136788:
# This is one part of the list.
# T1: UNK ZnF1-3 (human, UniProt Q9C0B0 31-174)
# T1 sequence: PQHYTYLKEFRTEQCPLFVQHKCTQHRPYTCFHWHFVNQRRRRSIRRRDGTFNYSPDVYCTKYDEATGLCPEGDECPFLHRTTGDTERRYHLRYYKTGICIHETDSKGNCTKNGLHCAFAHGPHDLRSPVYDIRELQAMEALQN
# B1: chr5:128440902:128440903:+_ENSG00000066583_ENST00000173527|hu_mus|hu_hu_hu_mus_True|8_18 (ssRNA)
# RNA: GGGAGUUCUACAGUCCGACGAUCUUGAACGGUGCUGCCAAGUCCUUUGGGGUAUUGUUCCGUUAUGAUAACUGGAAUCCCUAAGAUCCGAGCUCCUUGCAACAGUCUCUGUCCCACGCUAAUAAUAUCCCCAAAAUAUUUGAUCAACAGAGGAUUGAGCAUCA
# B2: chr14:49633609:49633610:-_ENSMUSG00000061244_ENSMUST00000162175|mus_hu|FALSE|FALSE (ssRNA)
# RNA: GGGAGUUCUACAGUCCGACGAUCUUUGCCUUCUGACAGCAACAUUUUCUAGGAUAAAAACAGUGACAUGUAGUUUUAGAGAAUCUGAAAUUUCUACAUUCAAGAAUGGAAUUAAAAUUCAAUGUGAGGGGAAAAAAGCAAAAUCAACAGAGGAUUGAGCAUCA
# B3: chr14:76904430:76904431:+_ENSMUSG00000022010_ENSMUST00000022587|mus_mus|mus_mus_mus_hu_True|18_78 (ssRNA)
# RNA: GGGAGUUCUACAGUCCGACGAUCUGCAGCCAAAAACACCCUCGUGGAAAAAAAGAGCAAGCUCCAGCAGCCUUGUAUAAGCUAGAUAAAAUCUUCUGGCUUUCCGCAGCCCAGGGAGUGAGAACGGACGGCAGCCCUAAUUUACAACAGAGGAUUGAGCAUCA
# B4: chr14:78183846:78183847:+_ENSG00000119705_ENST00000557342|hu_hu|hu_hu_hu_mus_False|58_68 (ssRNA)
# RNA: GGGAGUUCUACAGUCCGACGAUCUCUCAGAAAUCUUUCUUCAUCAGAUGUUUGAGCUCCGUGCAAAAGUUUUGGCCUUCUAGUGUGAACGUGGAUCUAUGGGAGGGAAAGCACUGUCAGAAAAGGUAAUUUUUUUUUUAAAGACAACAGAGGAUUGAGCAUCA
# B5: 138089142_138117674_91_3pUTR_ENSG00000044115_ENST00000302763|human|control|control (ssRNA)
# RNA: GGGAGUUCUACAGUCCGACGAUCUGAUCUCUAGACUUUUAGGAUCCCACUUGAAGUUUAUGUUGCCUGCAUGGACAGCAGUCAUUUCUGCGGCUAGCUGGGCGAGCGCUAAAUUCCAGAGGCCCGAAGCAGACGGGCGCUGCUCAACAGAGGAUUGAGCAUCA
# B6: chr16:18872548:18872549:-_ENSMUSG00000022706_ENSMUST00000023391|mus_mus|FALSE|FALSE (ssRNA)
# RNA: GGGAGUUCUACAGUCCGACGAUCCUGGUAGUUAGAGAUAGGUGGUGUGUAAUGUGGCCCUUCUUUCUCGAAGGGGAAUAGGCUGGUAUCCCGCUUUAUGGCCUCGGCAUAGAGCUCUGCAGAUUCAAGUUUCAGCUCCUCCAGCAACAGAGGAUUGAGCAUCA
# B7: chr22:19452774:19452775:-_ENSG00000070010_ENST00000399523|hu_hu|hu_hu_hu_mus_False|8_68 (ssRNA)
# RNA: GGGAGUUCUACAGUCCGACGAUCCUUCUCAUUGUAGUUGAUAGCAAUCACAUCUCCAGUCGUCAGACAGGCAAAGUUUCUCAAUGCAUUUUCUAAUACCGCUUUAGGGUUGGUAAUAUCCAGGAAGUCAGGGCUCUGAGGCUGCAACAGAGGAUUGAGCAUCA
# B8: 117608601_117610917_3654_CDS_ENSMUSG00000025571_ENSMUST00000138299|mouse|control|control (ssRNA)
# RNA: GGGAGUUCUACAGUCCGACGAUCCUGCAGAUUAGUGAUUGUGCGCGCAACUUGCUGCUCCUGUUGCCUCAUGGGUCCGGAAACAUUCCGCUGGGCCUGUAACAUCUGCUGCUGGAUUUGUAAACGUUGGUAUGCCAGCUGCAGCAACAGAGGAUUGAGCAUCA
# B9: chr2:115689334:115689335:-_ENSMUSG00000027210_ENSMUST00000074285|mus_hu|motif|central (ssRNA)
# RNA: GGGAGUUCUACAGUCCGACGAUCCUCUUUGAAGAAGAGUCCCCCAAAAAUAAUAAUAAGAAUUGGCUUAUGAAGCACGAACGGUAAAGAUCUGUUUGAAACUAAAGGACACAUUUAUGGAGGAACAAAGGCCGGGCAUGAAAACAACAGAGGAUUGAGCAUCA
# B10: chr11:85023558:85023559:-_ENSMUSG00000018481_ENSMUST00000018625|mus_mus|FALSE|FALSE (ssRNA)
# RNA: GGGAGUUCUACAGUCCGACGAUCGCCAUGUUUAGACAGCUUAUCCAUGUAUGUCUGAGCUAAUUUAAAUGUUUCUUCACCUAGAUGAUAUUUACAAUUUCCAUUUCGCACAUGAAGCAACCUCACACAACACUCCACUGCUCGCAACAGAGGAUUGAGCAUCA
# B11: chr16:29654537:29654538:+_ENSMUSG00000038084_ENSMUST00000160597|mus_hu|FALSE|FALSE (ssRNA)
# RNA: GGGAGUUCUACAGUCCGACGAUCCGUAAUGUGAAGGUUUUAAAAAAAUAAUACAAAGUUCAUUCACAGUGCACAAGUGAAAACAAGGUAAGUUUCAAAUAUCUCAACAACAUAUAGCCAUGAUCAUUCAAAAGGUAAGCAUAUCAACAGAGGAUUGAGCAUCA
# B12: chr1:66480114:66480115:+_ENSMUSG00000015222_ENSMUST00000024639|mus_hu|mus_mus_mus_hu_True|48_108 (ssRNA)
# RNA: GGGAGUUCUACAGUCCGACGAUCUGGCCUGUGACGGAUGUUCUUCAGAGAGCCACAUUUGGAUGUCACAUGGCUUAGGUCUAUUUUCUUAGUAACAAUUUGUACCUGCCCCCCUUUAGGCUGGUAUUUGAUGUUGUCUGUUGACAACAGAGGAUUGAGCAUCA
# B13: chr16:56712917:56712918:-_ENSMUSG00000022757_ENSMUST00000065515|mus_mus|FALSE|FALSE (ssRNA)
# RNA: GGGAGUUCUACAGUCCGACGAUCAUAAUCAGCUUCCCACUUAGGUCCAACUGUCCGUUCAUUGUGGAGUCCAGGAUGCUCUAUAUAUACAACUCUAGGGGAAAAAAACCCGCUUGCCGAGGCCGUCCACCUCAGCUGACCCGGCAACAGAGGAUUGAGCAUCA
# B14: chr7:150721943:150721944:-_ENSMUSG00000059119_ENSMUST00000072727|mus_mus|FALSE|FALSE (ssRNA)
# RNA: GGGAGUUCUACAGUCCGACGAUCCACCUGGAGCUGCUUCAGGGCAUUAAUUCUUCUUUUGACAGCUUUAGGUAAAGUUUCUAUGUAACUAGAAGGAGUGUGAGAGACGUUGUCAAGACGUUCCUGCAAAGCUGCCAGCACUUGCAACAGAGGAUUGAGCAUCA
# Target: T1, UNK ZnF1-3
# Experiment: nsRBNS (natural sequence RNA bind-n-seq); RBNS binding buffer (assumed for nsRBNS): 25 mM Tris pH 7.5, 150 mM KCl, 3 mM MgCl2, 0.01% Triton X-100, 500 ug/ml BSA, 20 U/ml SUPERase-In, 4 C; UNK is unkempt and MSI1 is Musashi-1; names of the RNAs are library labels; protein concentration not given here; high values mean tight binding
row,Binder,binding signal [enrichment R]
1,B1,0.906
2,B2,1.34
3,B3,1.98
4,B4,1.71
5,B5,0.872
6,B6,0.852
7,B7,1
8,B8,0.607
9,B9,2.4
10,B10,0.794
11,B11,1.21
12,B12,0.384
13,B13,1.15
14,B14,0.94
